What was measured:
Type in all cases: in vivo
Botrytis cinerea = assay: Test Example B: Gray mold on tomato; conditions: for Test B control value: Gray mold on tomato; for Test B control value (gray mold on tomato): class of control value, Table 7; for control value, Test B (gray mold on tomato): Table 7, Test B
Alternaia brassicicola = assay: Test Example C: Alternaria sooty spot on cabbage; conditions: for Test C control value: Alternaria sooty spot on cabbage; for Test C control value (Alternaria sooty spot on cabbage): class of control value, Table 7; for control value, Test C (Alternaria sooty spot on cabbage): Table 7, Test C
[1] = system: Blumeria graminis f. sp. hordei; assay: Test Example D: Powdery mildew on barley; conditions: for Test D control value: Powdery mildew on barley; for Test D control value (powdery mildew on barley): class of control value, Table 7; for control value, Test D (powdery mildew on barley): Table 7, Test D
Puccinia recondita = assay: Test Example E: Brown rust on wheat; conditions: for Test E control value: Brown rust on wheat; for Test E control value (brown rust on wheat): class of control value, Table 7; for control value, Test E (brown rust on wheat): Table 7, Test E
Plasmopara viticola = assay: Test Example G: Downy mildew on vine; conditions: for Test G control value: Downy mildew on vine, 250 ppm sprayed, 7 to 10 days after inoculation; for Test G control value / Test G control value (downy mildew on vine): 2.5 ml/pot; for Test G control value (downy mildew on vine): 250 ppm spray, investigated 7 to 10 days after inoculation; for control value, Test G (downy mildew on vine): 250 ppm sprayed (2.5 ml/pot) before inoculation, assessed 7 to 10 days after inoculation

Row | SMILES | Test B control value (Botrytis cinerea) | Test C control value (Alternaia brassicicola) | Test D control value [1] | Test E control value (Puccinia recondita) | Test G control value (Plasmopara viticola) | Test B control value (gray mold on tomato) (Botrytis cinerea) | Test C control value (Alternaria sooty spot on cabbage) (Alternaia brassicicola) | Test D control value (powdery mildew on barley) [1] | Test E control value (brown rust on wheat) (Puccinia recondita) | Test G control value (downy mildew on vine) (Plasmopara viticola) | control value, Test B (gray mold on tomato) (Botrytis cinerea) | control value, Test C (Alternaria sooty spot on cabbage) (Alternaia brassicicola) | control value, Test D (powdery mildew on barley) [1] | control value, Test E (brown rust on wheat) (Puccinia recondita) | control value, Test G (downy mildew on vine) (Plasmopara viticola)
1 | CCN1C(=O)CCC(c2ccsc2)=C1c1c(F)cccc1F [Compound 4] | L (L shows the control value of 50% or less) | L (L shows the control value of 50% or less) | H (H shows the control value more than 50%) | H (H shows the control value more than 50%) | H (H shows the control value more than 50%) |  |  |  |  |  |  |  |  |  | 
2 | CCn1c(-c2c(F)cc(F)cc2F)c(-n2cncn2)cc(Br)c1=O [Compound 47] | H (H shows the control value more than 50%) | H (H shows the control value more than 50%) | H (H shows the control value more than 50%) | H (H shows the control value more than 50%) | L (L shows the control value of 50% or less) |  |  |  |  |  |  |  |  |  | 
3 | CCn1c(-c2ccc(OC)cc2Cl)c(-n2cc(Cl)cn2)cc(Br)c1=O [Compound 427] |  |  |  |  |  | H (H shows the control value more than 50%) | H (H shows the control value more than 50%) | L (L shows the control value of 50% or less) | H (H shows the control value more than 50%) | L (L shows the control value of 50% or less) |  |  |  |  | 
4 | CCn1c(-c2c(F)cc(OC)cc2F)c(-n2cc(Cl)cn2)cc(Br)c1=O [Compound 73] | H (H shows the control value more than 50%) | H (H shows the control value more than 50%) | H (H shows the control value more than 50%) | H (H shows the control value more than 50%) | L (L shows the control value of 50% or less) |  |  |  |  |  |  |  |  |  | 
5 | CCn1c(-c2ccccc2Br)c(-n2cc(Cl)cn2)cc(Cl)c1=O [Compound 195] |  |  |  |  |  |  |  |  |  |  | H (H shows the control value more than 50%) | H (H shows the control value more than 50%) | L (L shows the control value of 50% or less) | H (H shows the control value more than 50%) | L (L shows the control value of 50% or less)
6 | Cc1cnn(-c2cc(Br)c(=O)n(CC(F)F)c2-c2ccc(F)cc2Br)c1 [Compound 339] |  |  |  |  |  |  |  |  |  |  | H (H shows the control value more than 50%) | H (H shows the control value more than 50%) | H (H shows the control value more than 50%) | H (H shows the control value more than 50%) | L (L shows the control value of 50% or less)
7 | O=c1c(Cl)cc(-n2cc(Cl)cn2)c(-c2ccc(F)cc2Br)n1CC(F)F [Compound 274] |  |  |  |  |  |  |  |  |  |  | H (H shows the control value more than 50%) | H (H shows the control value more than 50%) | H (H shows the control value more than 50%) | H (H shows the control value more than 50%) | L (L shows the control value of 50% or less)
8 | Cn1c(-c2c(F)cc(F)cc2F)c(-n2cc(Cl)cn2)cc(Cl)c1=O [Compound 175] | H (H shows the control value more than 50%) | H (H shows the control value more than 50%) | H (H shows the control value more than 50%) | H (H shows the control value more than 50%) | L (L shows the control value of 50% or less) |  |  |  |  |  |  |  |  |  | 
9 | CCn1c(-c2c(F)cccc2Br)c(-n2cc(Cl)cn2)ccc1=O [Compound 216] |  |  |  |  |  |  |  |  |  |  | H (H shows the control value more than 50%) | H (H shows the control value more than 50%) | H (H shows the control value more than 50%) | H (H shows the control value more than 50%) | L (L shows the control value of 50% or less)
10 | CCn1c(-c2c(F)cccc2F)c(-c2sc(Br)cc2C)cc(Br)c1=O [Compound 388] |  |  |  |  |  | H (H shows the control value more than 50%) | H (H shows the control value more than 50%) | H (H shows the control value more than 50%) | H (H shows the control value more than 50%) | L (L shows the control value of 50% or less) |  |  |  |  | 
11 | CCn1c(-c2ccc(F)cc2Cl)c(-n2cc(Cl)cn2)cc(Br)c1=O [Compound 158] | H (H shows the control value more than 50%) | H (H shows the control value more than 50%) | H (H shows the control value more than 50%) | H (H shows the control value more than 50%) | L (L shows the control value of 50% or less) |  |  |  |  |  |  |  |  |  | 
12 | O=c1ccc(-n2cc(Cl)cn2)c(-c2ccc(F)cc2Cl)n1CC(F)F [Compound 233] |  |  |  |  |  |  |  |  |  |  | H (H shows the control value more than 50%) | H (H shows the control value more than 50%) | H (H shows the control value more than 50%) | H (H shows the control value more than 50%) | L (L shows the control value of 50% or less)
13 | CCn1c(-c2c(F)cc(OC)cc2F)c(-n2c(C)ccc2C)cc(Cl)c1=O [Compound 126] | H (H shows the control value more than 50%) | H (H shows the control value more than 50%) | L (L shows the control value of 50% or less) | H (H shows the control value more than 50%) | L (L shows the control value of 50% or less) |  |  |  |  |  |  |  |  |  | 
14 | O=c1c(Br)cc(-c2sccc2Cl)c(-c2c(F)cccc2F)n1CC(F)F [Compound 433] |  |  |  |  |  | H (H shows the control value more than 50%) | H (H shows the control value more than 50%) | H (H shows the control value more than 50%) | H (H shows the control value more than 50%) | L (L shows the control value of 50% or less) |  |  |  |  | 
15 | CCn1c(-c2ccc(OC)cc2Br)c(-n2cc(F)cn2)cc(Cl)c1=O [Compound 355] |  |  |  |  |  |  |  |  |  |  | H (H shows the control value more than 50%) | H (H shows the control value more than 50%) | L (L shows the control value of 50% or less) | H (H shows the control value more than 50%) | L (L shows the control value of 50% or less)
16 | CCn1c(-c2ccc(F)cc2F)c(-n2cc(Cl)cn2)ccc1=O [Compound 145] | H (H shows the control value more than 50%) | H (H shows the control value more than 50%) | H (H shows the control value more than 50%) | H (H shows the control value more than 50%) | L (L shows the control value of 50% or less) |  |  |  |  |  |  |  |  |  | 
17 | O=c1c(Cl)cc(-n2cc(F)cn2)c(-c2ccc(F)cc2Br)n1CC(F)F [Compound 448] |  |  |  |  |  | H (H shows the control value more than 50%) | H (H shows the control value more than 50%) | H (H shows the control value more than 50%) | H (H shows the control value more than 50%) | L (L shows the control value of 50% or less) |  |  |  |  | 
18 | Cc1cnn(-c2ccc(=O)n(CC(F)F)c2-c2ccccc2Br)c1 [Compound 405] |  |  |  |  |  | L (L shows the control value of 50% or less) | H (H shows the control value more than 50%) | H (H shows the control value more than 50%) | H (H shows the control value more than 50%) | L (L shows the control value of 50% or less) |  |  |  |  | 
19 | CCn1c(-c2ccc(OC)cc2Cl)c(-n2cc(Cl)cn2)ccc1=O [Compound 428] |  |  |  |  |  | L (L shows the control value of 50% or less) | H (H shows the control value more than 50%) | H (H shows the control value more than 50%) | H (H shows the control value more than 50%) | L (L shows the control value of 50% or less) |  |  |  |  | 
20 | CCn1c(-c2c(F)cccc2Br)c(-n2cc(F)cn2)cc(Cl)c1=O [Compound 391] |  |  |  |  |  | H (H shows the control value more than 50%) | L (L shows the control value of 50% or less) | L (L shows the control value of 50% or less) | H (H shows the control value more than 50%) | L (L shows the control value of 50% or less) |  |  |  |  | 
21 | CCn1c(-c2ccc(F)cc2F)c(-n2cc(F)cn2)cc(Cl)c1=O [Compound 251] |  |  |  |  |  |  |  |  |  |  | H (H shows the control value more than 50%) | H (H shows the control value more than 50%) | H (H shows the control value more than 50%) | H (H shows the control value more than 50%) | L (L shows the control value of 50% or less)

Source: patent US11178870B2 (priority 2017, dated 2021)
